# From PubChem BioAssay (Tox21)
# Several values for one entry are separate records, joined by “and”; a condition that tells them apart may be missing. Equal values may be shown once. The shares of active, inactive and inconclusive entries below differ from those in the screen. For some assays here: Potencies beside an inconclusive call are fits to weak or partial responses and may not hold up. Some structures have more than one record in an assay (separate samples or runs), and their calls can disagree. Activity calls are given as the source filed them. Unless noted, calls come from the whole dose curve; as a rule, active = well fitted curve in the direction sought with a large enough effect in the repeat runs; inconclusive = weak or mixed curves; inactive = no such curve, though single readings can be large; an effect the other way counts as inactive or inconclusive.
# Assays:
# [1] = qHTS assay to identify small molecule antagonists of the estrogen related receptor (ERR) signaling pathway from Tox21 library - cell viability counter screen (AID 1224834); note: nearly all actives have a fitted effect of over 30% in size; note: potency is the fitted concentration of half-maximal effect
# How it was run: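 Compounds in DMSO were pinned onto ERR cells that had been incubated for 6 h, and the plates were held at 37 C for 17.5 h. CellTiter-Fluor reagent was then added and fluorescence was measured after 30 min.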
# [2] = qHTS assay to identify small molecule antagonists of the estrogen related receptor signaling pathway with the pleiotropic PPARgamma coactivator (PGC) from Tox21 10K library (AID 1224841; call rule not given here; note: potency is the fitted concentration of half-maximal effect; actives are mostly falling curves and most rising ones were filed inactive; nearly all actives have a fitted effect of over 50% in size)
# How it was run: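 Cells stably carrying the PGC/ERR reporter, seeded at 2,000 per well, received pin-transferred compounds 6 h post-plating. Exposure lasted 18 h at 37 C. Signal: One-Glo luminescence.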
# [3] = qHTS assay to identify small molecule agonists of the hypoxia (HIF-1) signaling pathway - cell viability counter screen (AID 1224844; calls by dose curve; note: nearly all actives have a fitted effect of over 50% in size; note: potency is the fitted concentration of half-maximal effect)
# How it was run: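 Viability counter screen: HRE-bla ME-180 cells plated 5 hrs before compound addition, treated 17 hrs at 37C and 5% CO2, then CellTiter-Glo added after the FRET reporter read; luminescence after 30 min.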
# [4] = qHTS assay to identify small molecule agonists of the hypoxia (HIF-1) signaling pathway (AID 1224846; active = well fitted activation curve with a large enough effect in the signal ratio in the repeat runs, not every such curve was filed as active; inconclusive = weak or mixed curves; the % refers to the signal ratio; note: potency is the fitted concentration of half-maximal effect; for activation: % is set by controls: 0 for no effect and ±100 for the full control effect); details: HRE-bla ME-180 cells, beta-lactamase ratio, 17 h; activation: at 76.8 µM (top of the series) unless noted
# How it was run: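 Agonist mode reporter screen. ME-180 cells stably expressing bla under HRE control received test compounds in DMSO for 17 hrs (37C, 5% CO2), and beta-lactamase activity was then detected with the CCF4-AM FRET substrate.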
# [5] = qHTS assay to identify small molecule antagonists of the estrogen related receptor (ERR) signaling pathway from Tox21 library (AID 1224848); note: potency is the fitted concentration of half-maximal effect; nearly all actives have a fitted effect of over 50% in size
# How it was run: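 Compounds dissolved in DMSO are pin-transferred onto ERR reporter cells (2,000 per well) that have settled for 6 h at 37 C. Plates then incubate 18 h at 37 C before ONE-Glo luciferase reagent and a luminescence read 30 min later.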
# [6] = qHTS assay to identify small molecule agonists of H2AX (AID 1224845; active = well fitted activation curve with a large enough effect in the signal ratio in the repeat runs, not every such curve was filed as active; inconclusive = weak or mixed curves; the % refers to the signal ratio; note: potency is the fitted concentration of half-maximal effect; for activation (H2AX phosphorylation): % is set by controls: 0 for no effect and ±100 for the full control effect); details: CHO-K1 phospho-H2AX Ser139 HTRF, 3 h; activation (H2AX phosphorylation): at 154 µM (top of the series) unless noted
# How it was run: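 Wild-type CHO-K1 cells, plated overnight, exposed 3hr at 37C to 15 concentrations (0.76% DMSO final). Lysed, then HTRF anti-pH2AX (S139) cryptate and anti-H2AX-d2 antibodies, 24 hr room temperature; 665/620 nm emission read.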
# [7] = qHTS RealTime-Glo MT Cell Viability Assay in HepG2 cells - 24 hour (AID 1224867); note: nearly all actives have a fitted effect of over 50% in size; note: potency is the fitted concentration of half-maximal effect
# How it was run: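 HepG2 cells (600/well) were dispensed with RealTime-Glo reagents, incubated 5 h at 37 °C, then treated with compounds in DMSO for up to 40 h. Nonlytic NanoLuc luminescence reflecting viable cells was read at each stated time point.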
# [8] = qHTS RealTime-Glo MT Cell Viability Assay in HEK293 cells - 32 hour (AID 1224868); note: nearly all actives have a fitted effect of over 50% in size; note: potency is the fitted concentration of half-maximal effect
# How it was run: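 HEK293 cells seeded with NanoLuc/prosubstrate reagent, rested 5 h at 37 C, then dosed and kept at 37 C up to 40 h. Nonlytic real-time luminescence from viable cells read at 0, 8, 16, 24, 32 and 40 h.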
# [9] = target: Thyrotropin receptor (Homo sapiens) (UniProt P16473); experiment: qHTS assay to identify small molecule agonists of the thyroid stimulating hormone receptor (TSHR) signaling pathway (AID 1224843; calls by dose curve; note: % is set by controls: 0 for no effect and ±100 for the full control effect; nearly all actives have a fitted effect of over 45% in size); details: TSHR-HEK293 cells, cAMP HTRF, agonist mode, 30 min; activation: at 92.4 µM (top of the series) unless noted
# Chain of UniProt P16473 (P16473 whole entry, looked up): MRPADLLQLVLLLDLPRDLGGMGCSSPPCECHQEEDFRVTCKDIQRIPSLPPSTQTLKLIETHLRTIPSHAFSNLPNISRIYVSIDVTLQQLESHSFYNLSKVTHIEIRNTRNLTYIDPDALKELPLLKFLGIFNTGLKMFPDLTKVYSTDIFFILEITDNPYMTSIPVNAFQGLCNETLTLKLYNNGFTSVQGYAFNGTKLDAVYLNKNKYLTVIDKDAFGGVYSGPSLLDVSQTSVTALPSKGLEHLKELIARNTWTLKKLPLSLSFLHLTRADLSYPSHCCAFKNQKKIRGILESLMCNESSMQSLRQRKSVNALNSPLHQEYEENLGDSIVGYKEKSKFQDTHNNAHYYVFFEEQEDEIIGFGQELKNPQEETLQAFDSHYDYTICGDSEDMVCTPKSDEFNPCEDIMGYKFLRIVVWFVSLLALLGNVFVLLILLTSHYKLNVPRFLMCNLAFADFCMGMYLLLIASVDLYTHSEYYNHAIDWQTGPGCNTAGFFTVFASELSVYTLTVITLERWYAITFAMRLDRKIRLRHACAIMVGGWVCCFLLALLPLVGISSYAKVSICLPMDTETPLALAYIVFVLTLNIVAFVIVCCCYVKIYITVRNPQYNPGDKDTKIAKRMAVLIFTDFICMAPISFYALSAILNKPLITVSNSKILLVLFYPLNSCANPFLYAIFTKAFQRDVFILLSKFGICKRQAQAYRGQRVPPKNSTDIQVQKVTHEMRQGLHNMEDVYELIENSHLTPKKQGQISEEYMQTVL
# How it was run: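 HEK293/TSHR, 800 cells/well; cpd 30 min RT; add cAMP-d2 + anti-cAMP-cryptate, 1 h RT; fluorescence read on plate reader. 15-pt titration, n=3.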
# [10] = qHTS assay to identify small molecule agonists of H2AX - cell viability counter screen (AID 1224847; calls by dose curve; note: nearly all actives have a fitted effect of over 30% in size; note: potency is the fitted concentration of half-maximal effect)
# How it was run: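 Quantitative HTS viability measurement: CHO-K1 wild-type cells in serum (10% FBS) medium, short 3 hr drug exposure at 37C with 0.76% DMSO, CellTiter-Glo luminescent detection.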
# [11] = target: Luciferin 4-monooxygenase (Photinus pyralis) (UniProt P08659); experiment: qHTS assay to identify small molecule inhibitors of firefly luciferase (AID 1224835); note: nearly all actives have a fitted effect of over 25% in size; note: potency is the fitted concentration of half-maximal effect
# Chain of UniProt P08659 (P08659 whole entry, looked up): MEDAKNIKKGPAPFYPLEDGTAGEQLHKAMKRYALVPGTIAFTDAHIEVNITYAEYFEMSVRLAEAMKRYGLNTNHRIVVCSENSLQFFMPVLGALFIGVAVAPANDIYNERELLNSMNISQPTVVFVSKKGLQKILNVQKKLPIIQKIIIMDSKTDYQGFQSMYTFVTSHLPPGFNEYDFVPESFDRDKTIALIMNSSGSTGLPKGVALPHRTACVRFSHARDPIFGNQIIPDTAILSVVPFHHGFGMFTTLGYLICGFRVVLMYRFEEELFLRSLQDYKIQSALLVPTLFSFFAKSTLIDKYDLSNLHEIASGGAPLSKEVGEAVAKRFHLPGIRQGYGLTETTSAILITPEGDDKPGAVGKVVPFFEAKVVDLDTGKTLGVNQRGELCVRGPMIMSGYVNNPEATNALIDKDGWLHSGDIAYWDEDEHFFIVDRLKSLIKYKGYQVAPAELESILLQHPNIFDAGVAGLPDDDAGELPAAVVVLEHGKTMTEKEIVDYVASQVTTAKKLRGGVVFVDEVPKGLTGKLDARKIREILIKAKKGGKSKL
# How it was run: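 Biochemical qHTS: compounds run as interplate titrations against purified firefly enzyme, with D-luciferin and ATP each at its KM concentration. Light output recorded by CCD imaging.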
# [12] = A CellTox Green Cytotoxicity Assay to monitor cytotoxicity in HEK293 cells - 0 hour (AID 1224869)
# How it was run: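 Dead-cell fluorescence measured kinetically: asymmetric cyanine dye, HEK293, 600 cells/well, 5 h settle, 23 nL cpd/DMSO, 37 C, reads 0–40 h every 8 h.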
# [13] = qHTS assay to identify small molecule agonists of the constitutive androstane receptor (CAR) signaling pathway - cell viability counter screen (AID 1224836); note: potency is the fitted concentration of half-maximal effect; nearly all actives have a fitted effect of over 45% in size
# How it was run: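 Using CellTiter-Fluor, viability of HepG2 cells harbouring hCAR and CYP2B6-2.2kb was measured following 23 h incubation with a 15-concentration compound series plus PK11195 (0.75 uM final).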
# [14] = qHTS assay to identify small molecule antagonists of the constitutive androstane receptor (CAR) signaling pathway - cell viability counter screen (AID 1224837); note: potency is the fitted concentration of half-maximal effect; nearly all actives have a fitted effect of over 45% in size
# How it was run: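 Cells are seeded, rested 4 hr at 37 C/5% CO2, dosed with compound (15-point series) and 50 nM CITCO, incubated a further 23 hr, and then CellTiter-Fluor reagent is added before fluorescence is read. The line is HepG2 with stable hCAR and CYP2B6-2.2kb.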
# [15] = target: Nuclear receptor subfamily 1 group I member 3 (Homo sapiens) (UniProt Q14994); experiment: qHTS assay to identify small molecule agonists of the constitutive androstane receptor (CAR) signaling pathway (AID 1224839); note: potency is the fitted concentration of half-maximal effect; nearly all actives have a fitted effect of over 15% in size
# Chain of UniProt Q14994 (Q14994 whole entry, looked up): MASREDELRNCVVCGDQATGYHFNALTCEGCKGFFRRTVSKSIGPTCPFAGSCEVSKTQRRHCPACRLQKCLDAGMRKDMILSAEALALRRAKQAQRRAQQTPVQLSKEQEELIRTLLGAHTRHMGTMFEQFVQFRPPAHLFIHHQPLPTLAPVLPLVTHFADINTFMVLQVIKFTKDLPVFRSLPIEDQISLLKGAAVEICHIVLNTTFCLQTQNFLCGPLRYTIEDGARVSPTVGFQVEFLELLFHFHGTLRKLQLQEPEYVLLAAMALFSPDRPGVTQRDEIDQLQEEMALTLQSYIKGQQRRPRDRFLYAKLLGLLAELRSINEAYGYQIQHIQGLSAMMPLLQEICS
# How it was run: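 Double-stable HepG2 cells (hCAR, CYP2B6-2.2kb) seeded 4 h before compound addition. Exposure 24 h with 0.75 uM PK11195 final. Luciferase detected by ONE-Glo.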
# Tags give direction and shape of the fitted curve or compound fluorescence and quenching.
smiles,measurement,setting,value
COC(=O)C1=C(C)NC(C)=C(C(=O)O[C@@H]2CCCN(Cc3ccccc3)C2)[C@@H]1c1cccc([N+](=O)[O-])c1,Potency,[1],"inconclusive: 33.5 µM [cytotoxic, single point]"
same,Potency,[2],"inconclusive: 23.7 µM [falling, partial curve]"
same,Potency,[3],inactive
same,Potency,[4],inactive
same,Potency,[5],active: 23.7 µM
CCC(C)n1ncn(-c2ccc(N3CCN(c4ccc(OC[C@H]5CO[C@](Cn6cncn6)(c6ccc(Cl)cc6Cl)O5)cc4)CC3)cc2)c1=O (some centres not stated),Potency,[1],active: 3.76 µM
same,Potency,[3],"inconclusive: 3.38 µM [cytotoxic, full curve]"
same,Potency,[6],inactive
same,Potency,[4],"inconclusive: 6.01 µM [falling, full curve]"
same,Potency,[7],"inconclusive: 8.49 µM [falling, partial curve]"
same,Potency,[8],"inconclusive: 6.01 µM [cytotoxic, full curve]"
O=C(O)c1cccc(N(Cc2cccnc2)c2ccc(OC(F)F)c(OC(F)F)c2)c1,Potency,[1],"inconclusive: 68.6 µM [cytotoxic, partial curve, poor fit]"
same,activation,[9],inconclusive: -29.8%
same,Potency,[7],"inconclusive: 19.5 µM [falling, partial curve]"
CCOC(=O)NCCOc1ccc(Oc2ccccc2)cc1,Potency,[1],"inconclusive: 27.3 µM [cytotoxic, full curve]"
same,Potency,[2],"inconclusive: 43.3 µM [falling, partial curve, poor fit]"
same,activation,[9],inconclusive: -26.6%
same,Potency,[4],"inconclusive: 38.9 µM [falling, partial curve]"
same,Potency,[10],inconclusive: 127 µM [cytotoxic]
same,Potency,[5],active: 19.3 µM
CC(C)(C)c1ccc(C(=O)CCCCl)cc1,Potency,[1],inactive
same,Potency,[6],inactive
OCC1CCCO1 (configuration not stated),Potency,[1],inactive
same,Potency,[3],inactive
same,Potency,[6],"inconclusive: 127 µM [rising, partial curve, poor fit]"
same,Potency,[10],inactive
c1ccc2c(c1)c1cccc3ccc4cccc2c4c31,Potency,[1],inactive
same,Potency,[6],"inconclusive: 89.2 µM [fluorescent, partial curve] and inconclusive: 113 µM [fluorescent, partial curve]"
same,Potency,[4],active: 43.4 µM
CC(=O)CC(C)(C)C1CCCCC1,Potency,[11],inactive
C/C(=C\C(C)CC(C)CC(C)C)C1CC(=O)OC1=O (configuration not stated),Potency,[1],inactive
same,Potency,[6],inactive
same,Potency,[12],inactive
Cc1cccc(Nc2cc(Cl)nc(SCC(=O)O)n2)c1C,Potency,[1],"inconclusive: 68.5 µM [cytotoxic, partial curve, poor fit]"
same,Potency,[8],inactive
CC(C)(C)NSc1nc2ccccc2s1,Potency,[11],active: 18.1 µM
NC(=O)N1c2ccccc2C=Cc2ccccc21,Potency,[1],"inconclusive: 30.5 µM [cytotoxic, full curve]"
same,Potency,[4],inactive
same,Potency,[8],"inconclusive: 38.7 µM [cytotoxic, partial curve]"
C=CCON/C(CCC)=C1\C(=O)CC(C)(C)C(C(=O)OC)=C1O,Potency,[1],inactive
same,Potency,[10],"inconclusive: 1.77 µM [cytotoxic, single point]"
O=C1CC2(CCCC2)CC(=O)N1,Potency,[1],inactive
same,Potency,[4],inactive
O=C1c2ccccc2-c2ccccc21,Potency,[11],"inconclusive: 73 µM [inhibitor, partial curve]"
CCOC(=O)c1c(N)sc2c1CCN(Cc1ccccc1)C2,Potency,[11],inactive
O=[N+]([O-])c1ccc(O/N=C/c2cc(Br)c(O)c(Br)c2)c([N+](=O)[O-])c1,Potency,[11],"inconclusive: 79.3 µM [inhibitor, partial curve]"
same,Potency,[13],"inconclusive: 21.6 µM [cytotoxic, full curve, poor fit]"
same,Potency,[14],active: 34.2 µM
same,Potency,[15],"inconclusive: 54.2 µM [activator, partial curve]"
same,Potency,[6],"inconclusive: 71 µM [falling, partial curve]"
same,Potency,[10],"inconclusive: 50.2 µM [cytotoxic, full curve]"
same,Potency,[8],active: 43.4 µM
CC(C)CCCCCOC(=O)CCS,Potency,[1],inactive
same,Potency,[8],inactive
CCCCOc1ccc(C(=O)CCN2CCCCC2)cc1,Potency,[11],"inconclusive: 43.6 µM [inhibitor, partial curve, poor fit]"
same,Potency,[13],"inconclusive: 33.5 µM [cytotoxic, partial curve, poor fit]"
same,Potency,[14],"inconclusive: 29.8 µM [cytotoxic, partial curve]"
same,Potency,[6],"inconclusive: 15.6 µM [activator, full curve]"
same,Potency,[8],active: 16.9 µM
CC(C)c1ccc2ncccc2c1,Potency,[1],inactive
same,Potency,[7],inactive
same,Potency,[12],inactive
